From article PMC12820563
The other results are listed elsewhere or left out. The list includes weakly bound sequences.

Each sequence was assayed against T1, MBP-FoxP3dN (UniProt Q99JB6) (assay: PD-seq (MBP pull-down with sequencing)). Settings: 20 mM Tris-HCl pH 7.5, 100 mM NaCl, 1.5 mM MgCl2, 0.4 uM protein, 0.1 uM dsDNA library, 30 min, room temperature, amylose pull-down; high values mean tight binding; double strand, one strand shown.
T1 sequence: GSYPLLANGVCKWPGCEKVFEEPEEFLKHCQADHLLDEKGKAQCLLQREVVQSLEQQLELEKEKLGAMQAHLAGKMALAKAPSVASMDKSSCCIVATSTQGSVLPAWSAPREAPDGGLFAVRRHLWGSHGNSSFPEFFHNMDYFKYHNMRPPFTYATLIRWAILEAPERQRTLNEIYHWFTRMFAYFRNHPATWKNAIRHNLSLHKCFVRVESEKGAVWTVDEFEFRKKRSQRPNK
With “GATGATTGTTCTCCCAGCTGATGAATTTATCTCGTCGAGTAAACAAATTTTCCTAATCTTTCTGTTCAAGCGCCATCTAC” the binding signal (RPM ratio (pull-down/input)) was 0.555. “GATGATTGTTCTCCCAGCTGATGAATTAATTCTATCGAGTAAACAAATTTTCCTAATCTTTCTGTTCAAGCGCCATCTAC” gave a binding signal (RPM ratio (pull-down/input)) of 0.275. Work on “GATGATTGTTCTCCCAGCTGATGAATTTTCCCACTCGAGTAAACAAATTTTCCTAATCTTTCTGTTCAAGCGCCATCTAC” yielded a binding signal (RPM ratio (pull-down/input)) of 0.213. “GATGATTGTTCTCCCAGCTGATGAATTACATTATTCGAGTAAACAAATTTTCCTAATCTTTCTGTTCAAGCGCCATCTAC” showed a binding signal (RPM ratio (pull-down/input)) of 0.967. “GATGATTGTTCTCCCAGCTGATGAATTAGGAGAGTCGAGTAAACAAATTTTCCTAATCTTTCTGTTCAAGCGCCATCTAC” gave a binding signal (RPM ratio (pull-down/input)) of 0.256. “GATGATTGTTCTCCCAGCTGATGAATTCGTATTCTCGAGTAAACAAATTTTCCTAATCTTTCTGTTCAAGCGCCATCTAC” gave a binding signal (RPM ratio (pull-down/input)) of 2.07. With “GATGATTGTTCTCCCAGCTGATGAATTCTTGTAATCGAGTAAACAAATTTTCCTAATCTTTCTGTTCAAGCGCCATCTAC” the binding signal (RPM ratio (pull-down/input)) was 0.734. In the case of “GATGATTGTTCTCCCAGCTGATGAATTAATGAGATCGAGTAAACAAATTTTCCTAATCTTTCTGTTCAAGCGCCATCTAC”, the binding signal (RPM ratio (pull-down/input)) is reported as 0.246. “GATGATTGTTCTCCCAGCTGATGAATTGAAGTCATCGAGTAAACAAATTTTCCTAATCTTTCTGTTCAAGCGCCATCTAC” showed a binding signal (RPM ratio (pull-down/input)) of 0.441. In the case of “GATGATTGTTCTCCCAGCTGATGAATTGACAAACTCGAGTAAACAAATTTTCCTAATCTTTCTGTTCAAGCGCCATCTAC”, the binding signal (RPM ratio (pull-down/input)) is reported as 0.755. With “GATGATTGTTCTCCCAGCTGATGAATTAACATACTCGAGTAAACAAATTTTCCTAATCTTTCTGTTCAAGCGCCATCTAC” the binding signal (RPM ratio (pull-down/input)) was 0.486. “GATGATTGTTCTCCCAGCTGATGAATTAGCCAATTCGAGTAAACAAATTTTCCTAATCTTTCTGTTCAAGCGCCATCTAC” was tested, and the binding signal (RPM ratio (pull-down/input)) was 0.326. Sequence “GATGATTGTTCTCCCAGCTGATGAATTGAAAAGTTCGAGTAAACAAATTTTCCTAATCTTTCTGTTCAAGCGCCATCTAC” has a binding signal (RPM ratio (pull-down/input)) of 0.16. “GATGATTGTTCTCCCAGCTGATGAATTTAAGATGTCGAGTAAACAAATTTTCCTAATCTTTCTGTTCAAGCGCCATCTAC” was tested, and the binding signal (RPM ratio (pull-down/input)) was 0.373. Sequence “GATGATTGTTCTCCCAGCTGATGAATTCCGTCTCTCGAGTAAACAAATTTTCCTAATCTTTCTGTTCAAGCGCCATCTAC” has a binding signal (RPM ratio (pull-down/input)) of 0.992. In the case of “GATGATTGTTCTCCCAGCTGATGAATTCGGCAGGTCGAGTAAACAAATTTTCCTAATCTTTCTGTTCAAGCGCCATCTAC”, the binding signal (RPM ratio (pull-down/input)) is reported as 0.539. With “GATGATTGTTCTCCCAGCTGATGAATTCGTTGTCTCGAGTAAACAAATTTTCCTAATCTTTCTGTTCAAGCGCCATCTAC” the binding signal (RPM ratio (pull-down/input)) was 4.96. In the case of “GATGATTGTTCTCCCAGCTGATGAATTACTCAGTTCGAGTAAACAAATTTTCCTAATCTTTCTGTTCAAGCGCCATCTAC”, the binding signal (RPM ratio (pull-down/input)) is reported as 0.296. With “GATGATTGTTCTCCCAGCTGATGAATTAGATAACTCGAGTAAACAAATTTTCCTAATCTTTCTGTTCAAGCGCCATCTAC” the binding signal (RPM ratio (pull-down/input)) was 0.358. “GATGATTGTTCTCCCAGCTGATGAATTGCGGGGCTCGAGTAAACAAATTTTCCTAATCTTTCTGTTCAAGCGCCATCTAC” showed a binding signal (RPM ratio (pull-down/input)) of 0.665. In the case of “GATGATTGTTCTCCCAGCTGATGAATTATTGCTATCGAGTAAACAAATTTTCCTAATCTTTCTGTTCAAGCGCCATCTAC”, the binding signal (RPM ratio (pull-down/input)) is reported as 1.25. For “GATGATTGTTCTCCCAGCTGATGAATTTAAAGTCTCGAGTAAACAAATTTTCCTAATCTTTCTGTTCAAGCGCCATCTAC”, the binding signal (RPM ratio (pull-down/input)) was 0.356. Sequence “GATGATTGTTCTCCCAGCTGATGAATTCGAAGGGTCGAGTAAACAAATTTTCCTAATCTTTCTGTTCAAGCGCCATCTAC” has a binding signal (RPM ratio (pull-down/input)) of 0.259. With “GATGATTGTTCTCCCAGCTGATGAATTCACTGGTTCGAGTAAACAAATTTTCCTAATCTTTCTGTTCAAGCGCCATCTAC” the binding signal (RPM ratio (pull-down/input)) was 0.354. Sequence “GATGATTGTTCTCCCAGCTGATGAATTCGGTAATTCGAGTAAACAAATTTTCCTAATCTTTCTGTTCAAGCGCCATCTAC” has a binding signal (RPM ratio (pull-down/input)) of 0.998. For “GATGATTGTTCTCCCAGCTGATGAATTTCGCACGTCGAGTAAACAAATTTTCCTAATCTTTCTGTTCAAGCGCCATCTAC”, the binding signal (RPM ratio (pull-down/input)) was 1.99. With “GATGATTGTTCTCCCAGCTGATGAATTTGGATCCTCGAGTAAACAAATTTTCCTAATCTTTCTGTTCAAGCGCCATCTAC” the binding signal (RPM ratio (pull-down/input)) was 0.458. “GATGATTGTTCTCCCAGCTGATGAATTGGTAGTATCGAGTAAACAAATTTTCCTAATCTTTCTGTTCAAGCGCCATCTAC” gave a binding signal (RPM ratio (pull-down/input)) of 1.51. “GATGATTGTTCTCCCAGCTGATGAATTCTGCTGTTCGAGTAAACAAATTTTCCTAATCTTTCTGTTCAAGCGCCATCTAC” gave a binding signal (RPM ratio (pull-down/input)) of 3.41. With “GATGATTGTTCTCCCAGCTGATGAATTAACCTAGTCGAGTAAACAAATTTTCCTAATCTTTCTGTTCAAGCGCCATCTAC” the binding signal (RPM ratio (pull-down/input)) was 0.193. Work on “GATGATTGTTCTCCCAGCTGATGAATTCTCCATTTCGAGTAAACAAATTTTCCTAATCTTTCTGTTCAAGCGCCATCTAC” yielded a binding signal (RPM ratio (pull-down/input)) of 0.26. Work on “GATGATTGTTCTCCCAGCTGATGAATTCAGCCGGTCGAGTAAACAAATTTTCCTAATCTTTCTGTTCAAGCGCCATCTAC” yielded a binding signal (RPM ratio (pull-down/input)) of 0.407.
